Laboratory results from PubChem BioAssay (NCATS).
This list was built around the results that the source calls inconclusive (neither active nor inactive); the mix of calls is not that of the screen. Potencies beside an inconclusive call are fits to weak or partial responses and may not hold up. Active and inactive are the calls of the source. Calls come from the whole dose curve; as a rule, active = well fitted activation curve with a large enough effect; inconclusive = small, poorly fitted or top-dose-only effect; inactive = no such curve, though single readings can be large or run the other way.

These molecules were tested against Cellular tumor antigen p53 (Homo sapiens) (UniProt P04637) (assay: Primary qHTS for small molecule compounds that upregulate eGFP-tagged delta133p53alpha (in N-terminal) cells. (AID 2060322; note: nearly all actives have a fitted effect of over 75% in size;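 for activation: series mostly up to about 56 µM; 0% = DMSO vehicle and 100% = reference activator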)). Settings: NCI-H358 eGFP-delta133p53alpha fluorescence, 24 h; activation: hits give high values.
Summary of the method: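 NCI-H358 cells pre-induced 24 h with 10 ng/ml doxycycline to express N-terminal eGFP-delta133p53alpha, then dosed 24 h at 37C without doxycycline; fixed, Hoechst-stained, GFP intensity by laser scanning cytometry, normalized to DMSO (0%) and 57.5 uM 5-azacytidine (100%).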
Potency is the fitted concentration of half-maximal effect; tags give direction and shape of the fitted curve.

UniProt P04637, sequence (P04637 whole entry, looked up): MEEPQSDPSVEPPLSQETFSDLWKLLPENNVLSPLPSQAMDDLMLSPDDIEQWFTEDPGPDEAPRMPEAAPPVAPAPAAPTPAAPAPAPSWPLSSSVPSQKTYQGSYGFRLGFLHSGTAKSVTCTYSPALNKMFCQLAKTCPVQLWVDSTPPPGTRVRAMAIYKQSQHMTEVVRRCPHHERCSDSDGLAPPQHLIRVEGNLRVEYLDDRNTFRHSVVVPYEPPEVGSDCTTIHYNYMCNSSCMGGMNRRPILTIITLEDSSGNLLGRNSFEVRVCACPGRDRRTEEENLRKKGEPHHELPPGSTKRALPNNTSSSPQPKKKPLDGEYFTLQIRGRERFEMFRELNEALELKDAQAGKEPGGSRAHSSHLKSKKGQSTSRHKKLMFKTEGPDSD

SMILES	activation	Potency
C/C=C(\C)C(=O)OCC1OC(OC2OC(CO)C(O)C(O)C2O)C(O)C(O)C1O (stereo not drawn)	inactive: -16.8%	–
Cc1ccc(C(=O)N(CCCN)C(c2oc3cc(Cl)ccc3c(=O)c2Cc2ccccc2)C(C)C)cc1 (stereo not drawn)	–	inconclusive: 26.9 µM [activator, partial curve, poor fit]
COc1cc(N(C)CCN(C)C)c(N)cc1Nc1nccc(-c2cn(C)c3ccccc23)n1	–	inconclusive: 30.1 µM [activator, single point]
Cc1cn2c(n1)Cc1ccc(Cl)cc1C(c1ccc(N)cc1)=N2	–	inconclusive: 26.9 µM [activator, single point]
O=C1NC(=O)[C@@H](c2cn3c4c(cccc24)CCC3)[C@H]1c1c[nH]c2ccccc12	–	inconclusive: 0.109 µM [activator, full curve, poor fit]
COc1ccccc1OCCNCC(O)CCOc1cccc2[nH]c3ccccc3c12 (stereo not drawn)	–	inconclusive: 37.9 µM [activator, single point]
CC(C=CC1=C(C)CCCC1(C)C)=CC=CC(C)=CC(=O)Nc1ccc(O)cc1	–	inconclusive: 31.4 µM [activator, partial curve, poor fit]
COc1cc2ncnc(Nc3ccc(Oc4ccccc4)cc3)c2cc1OC	–	inconclusive: 16.9 µM [activator, partial curve]
CCCCCCCCCCCCCCCC[N+](C)(C)CCN(Cc1ccc(OC)cc1)c1ncccn1	–	active: 34.7 µM
CC1(C)CCCC2(C)C1C(OC(=O)/C=C/C=C/C=O)C=C1COC(=O)C12O (stereo not drawn)	–	inconclusive: 14.7 µM [activator, single point]
NNCCc1ccc(NC(=O)CCCc2ccccc2)cc1	–	inconclusive: 19.3 µM [activator, partial curve, poor fit]
CCCCCCCCCCCCCCCC[N+](C)(C)Cc1ccccc1	–	inconclusive: 21.9 µM [activator, single point]
CC/C(C)=C/C(=O)OC1C(OC2(C)CCC3C(C4C(C)CCC42)C3(C)C)OC(C)C(O)C1O (stereo not drawn)	–	inconclusive: 18.5 µM [activator, single point]
